In the antibiotic and cytotoxicity screens of Wong et al. (2023):
Some of the results follow.

Legend:
[1] = tested on: HSkMC (human skeletal muscle cells); test: cytotoxicity call (relative viability < 0.9); settings: 10 µM
[2] = tested on: HepG2; test: cytotoxicity call (relative viability < 0.9); settings: 10 µM
[3] = tested on: S. aureus RN4220; test: growth inhibition call (relative growth <= 0.2); settings: 50 µM

| Structure (SMILES) | cytotoxicity call [1] | cytotoxicity call [2] | growth inhibition call [3] |
| --- | --- | --- | --- |
| Cc1ccc(S(=O)(=O)N(C)C[C@@H]2Oc3ccc(NS(=O)(=O)c4ccc(F)cc4)cc3C(=O)N([C@H](C)CO)C[C@@H]2C)cc1 | inactive | inactive | inactive |
| C[C@H](CO)N1C[C@H](C)[C@@H](CN(C)Cc2ccc(Cl)c(Cl)c2)Oc2c(NS(=O)(=O)c3cccs3)cccc2C1=O | inactive | inactive | inactive |
| Cc1noc(C)c1NC(=O)N(C)C[C@@H]1Oc2ccc(NC(=O)NC(C)C)cc2CC(=O)N([C@@H](C)CO)C[C@H]1C | inactive | inactive | inactive |
| C[C@@H]1CN([C@H](C)CO)C(=O)c2cc(Br)cnc2O[C@H]1CN(C)S(=O)(=O)c1ccc(F)cc1 | inactive | inactive | inactive |
| C[C@@H]1CCCCO[C@@H](CN(C)Cc2ccccc2)[C@@H](C)CN([C@@H](C)CO)C(=O)c2cc(NS(=O)(=O)c3cccs3)ccc2O1 | inactive | inactive | inactive |
| Cc1noc(C)c1S(=O)(=O)N(C)C[C@@H]1Oc2c(NC(=O)C3CCCCC3)cccc2C(=O)N([C@@H](C)CO)C[C@@H]1C | inactive | inactive | inactive |
| C[C@@H]1CCCCO[C@@H](CN(C)C(=O)Nc2ccccc2)[C@@H](C)CN([C@@H](C)CO)C(=O)c2cc(NC(=O)Nc3ccc(C(F)(F)F)cc3)ccc2O1 | inactive | active | inactive |
| CCS(=O)(=O)Nc1ccc2c(c1)C(=O)N(C)C[C@@H](OC)[C@H](C)CN(CCC(F)(F)F)[C@H](C)CO2 | inactive | inactive | inactive |
| C=CC[C@H](CC(=O)N(CCO)Cc1ccccc1)C(=O)N1CCC[C@@H]1COC(=O)[C@H](CC=C)NC(=O)OCC1c2ccccc2-c2ccccc21 | inactive | inactive | inactive |
| COC(=O)C(CC#Cc1ccc2c(c1)[C@]1(C(=O)N2)[C@H](c2ccc(O)cc2)N2[C@H](c3ccccc3)[C@H](c3ccccc3)OC(=O)[C@H]2[C@@H]1C(=O)N1CCCCCCC1)C(=O)OC | inactive | inactive | inactive |
| COC(=O)Nc1c(C)cc(C)cc1C | inactive | inactive | inactive |
| C[C@H](CO)N1C[C@H](C)[C@@H](CN(C)S(=O)(=O)c2cccs2)Oc2c(NC(=O)Nc3cccc4ccccc34)cccc2C1=O | inactive | inactive | inactive |
| O=C1C(CCC(O)c2ccc(F)cc2)C(c2ccc(O)cc2)N1c1ccc(F)cc1 (stereo not drawn) | inactive | inactive | inactive |
| C[C@H]1CN([C@@H](C)CO)C(=O)Cc2cc(NC(=O)Nc3ccc(F)cc3)ccc2O[C@H]1CN(C)S(C)(=O)=O | inactive | inactive | inactive |
| C[C@@H]1CN([C@H](C)CO)C(=O)c2cccc(NC(=O)Nc3cccc4ccccc34)c2O[C@H]1CN(C)S(=O)(=O)c1ccc(F)cc1 | inactive | inactive | inactive |
| CN(C)C(=O)C1CCN(S(C)(=O)=O)CC1 | inactive | inactive | inactive |
| CCCNC(=O)N1C[C@@H](O)COC[C@@H]2O[C@@H](CC(=O)NCc3ccncn3)CC[C@H]21 | inactive | inactive | inactive |
| C[C@H](CO)N1C[C@H](C)[C@@H](CN(C)Cc2ccc(Cl)c(Cl)c2)Oc2ccc(NC(=O)Cc3ccccc3)cc2CC1=O | inactive | inactive | inactive |
| C[C@@H]1CCCCO[C@@H](CN(C)C(=O)Cc2ccccc2)[C@@H](C)CN([C@@H](C)CO)C(=O)c2cc(NC(=O)Nc3ccccc3)ccc2O1 | inactive | inactive | inactive |

| Structure (SMILES) | cytotoxicity call [1] | cytotoxicity call [2] | growth inhibition call [3] |
| --- | --- | --- | --- |
| CC(C)NC(=O)N(C)C[C@@H]1Oc2ccc(NS(=O)(=O)c3ccccc3)cc2C(=O)N([C@H](C)CO)C[C@@H]1C | inactive | inactive | inactive |
| Cc1ccc(S(=O)(=O)Nc2ccc3c(c2)C(=O)N([C@H](C)CO)C[C@@H](C)[C@H](CN(C)Cc2ccc(Cl)c(Cl)c2)OCCCC[C@@H](C)O3)cc1 | inactive | active | inactive |
| CCCCCCOC(=O)/N=C(/N)c1ccc(NCc2nc3cc(C(=O)N(CCC(=O)OCC)c4ccccn4)ccc3n2C)cc1 | active | inactive | inactive |
| Cc1noc(C)c1NC(=O)N(C)C[C@H]1Oc2ccc(NC(=O)C3CC3)cc2CC(=O)N([C@H](C)CO)C[C@H]1C | inactive | inactive | inactive |
| N#C[C@@H]1N[C@H](CO)[C@H]1c1ccccc1 | inactive | inactive | inactive |
| C[C@@H]1CN([C@H](C)CO)S(=O)(=O)c2ccc(C#CC3CC3)cc2O[C@@H]1CN(C)Cc1ccccc1F | inactive | inactive | inactive |
| CC(C)(C)[S@](=O)N1Cc2cc(C(=O)NC3CCC3)nc(-c3cccc(-c4ccccc4F)c3)c2[C@@H]1CCO | inactive | inactive | inactive |
| CC(C)NC(=O)Nc1ccc2c(c1)C(=O)N([C@H](C)CO)C[C@H](C)[C@H](CN(C)C(=O)Nc1ccc(C(F)(F)F)cc1)OCCCC[C@@H](C)O2 | inactive | inactive | inactive |
| C[C@H]1CN([C@@H](C)CO)C(=O)c2cc(NC(=O)C3CCCCC3)ccc2O[C@H]1CN(C)Cc1ccc(Cl)c(Cl)c1 | inactive | inactive | inactive |
| C[C@@H]1CN([C@@H](C)CO)C(=O)c2cc(NC(=O)C3CCCCC3)ccc2O[C@@H](C)CCCCO[C@@H]1CN(C)S(=O)(=O)c1cccs1 | inactive | inactive | inactive |
| COc1ccc(NC(=O)Nc2cccc3c2O[C@@H](CN(C)S(C)(=O)=O)[C@H](C)CN([C@@H](C)CO)C3=O)cc1 | inactive | inactive | inactive |
| CNC[C@@H]1Oc2cc(C#CC(C)(C)O)ccc2S(=O)(=O)N([C@@H](C)CO)C[C@H]1C | inactive | inactive | inactive |
| C[C@@H]1CN([C@H](C)CO)C(=O)c2cccc(NS(=O)(=O)c3cn(C)cn3)c2O[C@H]1CN(C)Cc1ccc(C(=O)Nc2ccccc2N)cc1 | inactive | inactive | inactive |
| COc1ccc(S(=O)(=O)N(C)C[C@@H]2OCCCC[C@@H](C)Oc3ccc(NS(C)(=O)=O)cc3C(=O)N([C@@H](C)CO)C[C@H]2C)cc1 | inactive | inactive | inactive |
| Cc1noc(C)c1S(=O)(=O)N(C)C[C@@H]1Oc2ccc(NS(=O)(=O)c3ccccc3)cc2C(=O)N([C@H](C)CO)C[C@@H]1C | inactive | inactive | inactive |
| C[C@@H]1CN([C@@H](C)CO)C(=O)c2cc(NC(=O)c3ccccc3)ccc2O[C@@H](C)CCCCO[C@H]1CN(C)S(=O)(=O)c1ccc(F)cc1 | inactive | inactive | inactive |
| CCCC#Cc1cnc2c(c1)C(=O)N([C@H](C)CO)C[C@H](C)[C@@H](CN(C)C(=O)c1ccc3c(c1)OCO3)O2 | inactive | inactive | inactive |
| COc1ccccc1NC(=O)N(C)C[C@@H]1Oc2ncc(C#CCN(C)C)cc2C(=O)N([C@H](C)CO)C[C@H]1C | inactive | inactive | inactive |
| C[C@@H]1CN([C@H](C)CO)C(=O)c2cc(C#Cc3ccccn3)cnc2O[C@H]1CN(C)C(=O)CCN1CCCCC1 | inactive | inactive | inactive |

| Structure (SMILES) | cytotoxicity call [1] | cytotoxicity call [2] | growth inhibition call [3] |
| --- | --- | --- | --- |
| C[C@@H]1CN([C@H](C)CO)C(=O)c2cc(NS(=O)(=O)c3ccc(F)cc3)ccc2O[C@@H](C)CCCCO[C@@H]1CN(C)C(=O)C1CCCCC1 | inactive | inactive | inactive |
| C[N+](C)(C)CCOP(=O)([O-])OP(=O)(O)OCC1OC(n2ccc(N)nc2=O)C(O)C1O (stereo not drawn) | inactive | inactive | inactive |
| C[C@@H]1CN([C@H](C)CO)S(=O)(=O)c2ccc(C#CC3CC3)cc2O[C@H]1CN(C)Cc1cccc(F)c1 | inactive | inactive | inactive |
| O=C(Cn1cc(COc2ccc3ccccc3c2)nn1)NS(=O)(=O)c1ccccc1OC(F)(F)F | inactive | inactive | inactive |
| C[C@@H]1CN([C@H](C)CO)C(=O)Cc2cc(NC(=O)CCN3CCOCC3)ccc2O[C@@H]1CN(C)Cc1ccc(C(=O)O)cc1 | inactive | inactive | inactive |
| COc1ccc(NC(=O)N(C)C[C@H]2OCCCC[C@@H](C)Oc3ccc(NC(=O)Nc4ccc(F)cc4)cc3C(=O)N([C@H](C)CO)C[C@H]2C)cc1 | inactive | inactive | inactive |
| COc1ccc(S(=O)(=O)N(C)C[C@@H]2OCCCC[C@H](C)Oc3ccc(NC(=O)c4ccccc4)cc3C(=O)N([C@@H](C)CO)C[C@H]2C)cc1 | inactive | active | inactive |
| c1ccc(Oc2nnc(-c3ccccc3)c3ccccc23)cc1 | inactive | inactive | inactive |
| C[C@@H](C[N+](C)(C)C)OC(N)=O | inactive | inactive | inactive |
| CCC(=O)N[C@H]1C=C[C@@H](CC(=O)OC)O[C@H]1CO | inactive | inactive | inactive |
| O=C(O)c1ccnc(N2CC(O)(c3ccc(OCc4c(-c5c(Cl)cccc5Cl)noc4C4CC4)cc3Cl)C2)c1 | inactive | inactive | inactive |
| C[C@@H]1CN([C@@H](C)CO)C(=O)c2cc(C#CCc3ccccc3)cnc2O[C@H]1CN(C)C(=O)Cc1cccnc1 | inactive | inactive | inactive |
| O=C(NCCN1CCOCC1)[C@]1(CCS(=O)(=O)c2ccccc2)N=C(c2ccc(OCCCO)cc2)O[C@@H]1c1ccccc1 | inactive | inactive | inactive |
| Cn1cnc(S(=O)(=O)N[C@H]2CC[C@H](CC(=O)N3CCN(c4ccccc4)CC3)O[C@H]2CO)c1 | inactive | inactive | inactive |
| C[C@H]1CN([C@@H](C)CO)C(=O)c2cc(C3=CCCC3)cnc2O[C@H]1CN(C)C(=O)c1ccc2c(c1)OCO2 | inactive | active | inactive |
| CCCN(C)C[C@@H]1OCCCC[C@@H](C)Oc2ccc(NS(C)(=O)=O)cc2C(=O)N([C@H](C)CO)C[C@@H]1C | inactive | inactive | inactive |
| O=c1cc(O)nc[nH]1 | inactive | inactive | inactive |
| COc1ccc(S(=O)(=O)Nc2ccc3c(c2)C(=O)N([C@@H](C)CO)C[C@@H](C)[C@@H](CN(C)C(=O)C2CCCCC2)OCCCC[C@H](C)O3)cc1 | inactive | inactive | inactive |
